# In PubChem BioAssay (NCATS):
# The inconclusive results got no clear call from the source; some entries with a clear call stand among them for comparison. For part of these data: Potencies beside an inconclusive call are fits to weak or partial responses and may not hold up. The source made the active and inactive calls. Unless noted, calls follow the shape of the dose curve; as a rule, active = well fitted curve in the direction sought with a large enough effect; inconclusive = small, poorly fitted or top-dose-only effect, or another doubt; inactive = no such curve, though single readings can be large; an effect the other way counts as inactive or inconclusive.
# Experiments:
# [1] = P-glycoprotein substrates identified in KB-8-5-11 adenocarcinoma cell line, qHTS therapeutic library screen (AID 1346987); also: nearly all actives have a fitted effect of over 65% in size; as to activity change, negative = cytotoxicity: % is scaled to controls: 0 for no effect and ±100 for the full control effect
# Summary of the method: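 Compounds are pinned in dose-response onto KB-8-5-11 cells (500 cells/well, colchicine-free medium) and left 72 h at 37 degree C. CellTiter-Glo luminescence then yields AC50 values.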
# [2] = molecular target: Phospholipid hydroperoxide glutathione peroxidase GPX4 (Homo sapiens) (UniProt P36969); assay: Primary qHTS Assay for Inhibitors of Recombinant Selenoprotein Glutathione Peroxidase 4 (GPX4) (AID 1845192); also: nearly all actives have a fitted effect of over 65% in size; also: potency is read from the fitted curve at half-maximal effect
# Sequence of UniProt P36969 (P36969 whole entry, looked up): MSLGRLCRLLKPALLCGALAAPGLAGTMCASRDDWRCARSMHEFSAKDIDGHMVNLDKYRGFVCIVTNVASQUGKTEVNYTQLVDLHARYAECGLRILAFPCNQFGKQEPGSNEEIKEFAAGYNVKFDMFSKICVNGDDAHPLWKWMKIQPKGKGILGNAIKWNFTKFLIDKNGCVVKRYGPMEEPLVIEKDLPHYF
# Summary of the method: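 qHTS, GR-coupled: GPX4 200 nM + cpd 30 min RT → GSH 1 mM, NADPH 0.5 mM, GR 100 nM → CHP 0.5 mM start; fluor 340/450 at t0 and t15 min; no-enzyme wells as control.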
# [3] = Primary fluorescence-based thiol-reactive (MSTI) qHTS assay for identification of artifact compounds. (AID 1845221);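 also: potency is read from the fitted curve at half-maximal effect; thiol-reactive compounds lower the probe fluorescence signal; nearly all actives have a fitted effect of over 65% in size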
# Summary of the method: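 In PBS pH 7.4 with 2% DMSO, each compound met 4 uM MSTI for one hour at ambient temperature, shielded from light, before fluorescence detection.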
# CRL-7250 = normal cell line; assay: Cytotoxic Profiling of Annotated Libraries Using Quantitative High-Throughput Screening (AID 1296008); conditions: Five cell lines viability, CellTiter-Glo ATP luminescence, 48-72 h; max response: hits give low values; also: nearly all actives have a fitted effect of over 60% in size; also: potency is read from the fitted curve at half-maximal effect
# Summary of the method: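 Compounds were pin-transferred onto cells and incubated 48 or 72 hr at 37 degree Celsius, 95% humidity. CellTiter-Glo was added, plates sat 10 min at room temperature, then ATP-coupled luminescence was imaged as the viability read-out.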
# PA-1 = assay: Primary qHTS to identify gynecologic anti-cancer compounds using libraries of approved drugs and bioactive compounds (AID 1345084); conditions: Gynecologic cancer cell panel viability, ATPlite luminescence, 48 h; series mostly up to 57.5 µM; also: nearly all actives have a fitted effect of over 55% in size; also: potency is read from the fitted curve at half-maximal effect; as to activity change, negative = cytotoxicity: % is scaled to controls: 0 for no effect and ±100 for the full control effect
# Summary of the method: (§1)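 Five-concentration response, 48 h; readout is ATP-driven luciferase luminescence.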
# SKOV3 = assay: as above; conditions: Gynecologic cancer cell panel viability, ATPlite luminescence, 48 h; series mostly up to 57.5 µM
# Summary of the method: as §1
# [4] = molecular target: Ubiquitin carboxyl-terminal hydrolase 1 (Homo sapiens) (UniProt O94782); assay: Inhibitors of USP1/UAF1: Pilot qHTS (AID 504865);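 also: rhodamine fluorescence freed from ubiquitin-rhodamine substrate followed over time; potency is read from the fitted curve at half-maximal effect; nearly all actives have a fitted effect of over 35% in size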
# Sequence of UniProt O94782 (O94782 whole entry, looked up): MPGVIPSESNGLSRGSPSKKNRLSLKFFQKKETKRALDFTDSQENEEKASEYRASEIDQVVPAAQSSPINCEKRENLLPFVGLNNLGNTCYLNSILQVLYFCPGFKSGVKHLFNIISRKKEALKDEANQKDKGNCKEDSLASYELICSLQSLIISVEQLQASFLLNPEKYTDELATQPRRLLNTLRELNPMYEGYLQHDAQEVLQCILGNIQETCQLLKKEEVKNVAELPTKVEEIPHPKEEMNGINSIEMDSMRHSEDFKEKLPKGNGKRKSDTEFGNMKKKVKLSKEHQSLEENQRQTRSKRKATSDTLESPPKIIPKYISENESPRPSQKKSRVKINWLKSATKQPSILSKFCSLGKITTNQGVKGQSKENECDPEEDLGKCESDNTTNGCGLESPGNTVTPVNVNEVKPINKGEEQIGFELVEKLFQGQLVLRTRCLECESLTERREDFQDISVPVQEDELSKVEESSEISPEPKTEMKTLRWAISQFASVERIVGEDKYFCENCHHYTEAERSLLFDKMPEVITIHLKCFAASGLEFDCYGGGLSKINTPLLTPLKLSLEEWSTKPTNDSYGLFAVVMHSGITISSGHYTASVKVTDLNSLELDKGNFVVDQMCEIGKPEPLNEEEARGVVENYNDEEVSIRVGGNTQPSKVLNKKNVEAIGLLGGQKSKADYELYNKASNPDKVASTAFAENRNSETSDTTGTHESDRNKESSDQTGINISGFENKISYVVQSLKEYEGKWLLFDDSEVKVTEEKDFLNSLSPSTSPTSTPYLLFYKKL
# Summary of the method: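 In 50mM HEPES pH 7.8 containing 0.5mM EDTA, 1mM TCEP, 0.1 mg/ml BSA and 0.01% Tween-20, 1nM USP1/UAF1 is exposed to compound for 15 min, then Ub-Rho (150nM final) is added and fluorescence is read over time.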
# [5] = qHTS of pediatric cancer cell lines to identify multiple opportunities for drug repurposing: Primary screen for SK-N-MC cells (AID 1347093); conditions: SK-N-MC viability, CellTiter-Glo luminescence, 48 h; activity change, negative = cytotoxic: at 46 µM (top of the series);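 also: plate controls were DMSO neutral control for no effect and bortezomib for full effect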
# Summary of the method: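 Metabolically active cells were quantified by ATP-dependent luminescence (CellTiter-Glo, 15 min at room temperature) following 48 h treatment. Cells had been plated at 500-1,000 per well and settled for 5 h beforehand.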
# [6] = qHTS of pediatric cancer cell lines to identify multiple opportunities for drug repurposing: Primary screen for Rh41 cells (AID 1347108);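 also: luminescence drop marks cytotoxic hits; nearly all actives have a fitted effect of over 70% in size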
# Summary of the method: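 Phenotypic viability qHTS, 48 h compound exposure, CellTiter-Glo luminescence read-out; multi-concentration dosing so that potency and efficacy derive directly from the primary screen's curves.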
# [7] = Primary qHTS for small molecule stabilizers of the endoplasmic reticulum resident proteome: Secreted ER Calcium Modulated Protein (SERCaMP) assay (AID 1508630); conditions: SH-SY5Y GLuc-SERCaMP (Gaussia luciferase released on ER calcium loss) secretion, thapsigargin, luminescence; activity change, negative = inhibition: at 38.4 µM (top of the series) unless noted; also: potency is read from the fitted curve at half-maximal effect
# Summary of the method: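 The SH-SY5Y reporter protocol was run at 3 concentrations up to 38.3 uM (primary) or 11 concentrations (follow-up): 16 h compound, 100 nM thapsigargin for 4 h, then extracellular luciferase luminescence.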
# [8] = molecular target: Cytochrome P450 2D6 (Homo sapiens) (UniProt P10635); assay: Cytochrome P450 family 2 subfamily D member 6 (CYP2D6) small molecule antagonists: luciferase biochemical (cell-free) qHTS assay (AID 1645840; active = well fitted curve in the direction sought with a large enough effect in the repeat runs; inconclusive = weak or mixed curves; inactive = no such curve, though single readings can be large; an effect the other way counts as inactive or inconclusive; also: nearly all actives have a fitted effect of over 55% in size; also: potency is read from the fitted curve at half-maximal effect)
# Sequence of UniProt P10635 (P10635 whole entry, looked up): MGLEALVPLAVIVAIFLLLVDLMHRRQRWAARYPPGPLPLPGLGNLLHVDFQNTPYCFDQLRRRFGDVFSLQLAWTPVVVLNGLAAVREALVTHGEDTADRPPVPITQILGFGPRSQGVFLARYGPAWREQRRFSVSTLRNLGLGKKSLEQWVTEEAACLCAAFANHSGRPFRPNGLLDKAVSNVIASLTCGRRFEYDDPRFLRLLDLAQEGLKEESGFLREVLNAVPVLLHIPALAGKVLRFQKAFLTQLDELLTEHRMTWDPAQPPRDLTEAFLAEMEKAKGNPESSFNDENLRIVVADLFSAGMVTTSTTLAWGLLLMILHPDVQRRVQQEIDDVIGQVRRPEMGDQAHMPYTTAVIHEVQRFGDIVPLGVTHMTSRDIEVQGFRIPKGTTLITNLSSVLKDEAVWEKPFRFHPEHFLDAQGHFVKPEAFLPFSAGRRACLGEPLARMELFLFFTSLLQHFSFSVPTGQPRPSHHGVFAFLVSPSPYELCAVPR
# Summary of the method: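 P450-Glo CYP2D6 system: proluciferin substrate converted by enzyme to luciferin, read by luminescence proportional to activity. Enzyme-substrate mix with compound 10 min at room temperature, then NADPH regeneration 1 h before detection reagent.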
# CP194 = assay: qHTS profiling for inhibitors of Plasmodium falciparum proliferation (AID 504749);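 also: 0% = DMSO vehicle and full inhibition = artemisinin control; nearly all actives have a fitted effect of over 60% in size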; conditions: P. falciparum in erythrocytes, SYBR Green DNA, 72 h; series mostly up to 28.7 µM
# Summary of the method: (§2)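 Quantitative HTS: compounds pinned into medium, infected erythrocytes added (0.3% parasitemia, 2.5% hematocrit), 72 h culture at 37 C under 5% CO2. Saponin/Triton lysis with SYBR Green I, overnight RT, then fluorescence read.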
# CP291 = assay: as above; conditions: P. falciparum in erythrocytes, SYBR Green DNA, 72 h; activity, negative = inhibition: at 28.7 µM (top of the series)
# Summary of the method: as §2
# GB4 = assay: as above; conditions: P. falciparum in erythrocytes, SYBR Green DNA, 72 h; series mostly up to 28.7 µM
# Summary of the method: as §2
# JCK = assay: as above; conditions: P. falciparum in erythrocytes, SYBR Green DNA, 72 h; series mostly up to 28.7 µM
# Summary of the method: as §2
# OV90 = assay: Primary qHTS to identify gynecologic anti-cancer compounds using libraries of approved drugs and bioactive compounds (AID 1345084); conditions: Gynecologic cancer cell panel viability, ATPlite luminescence, 48 h; series mostly up to 57.5 µM; also: nearly all actives have a fitted effect of over 55% in size; also: potency is read from the fitted curve at half-maximal effect; as to activity change, negative = cytotoxicity: % is scaled to controls: 0 for no effect and ±100 for the full control effect
# Summary of the method: as §1
# [9] = Drug repurposing screens with cells derived from glioblastoma tumor samples (AID 1345199); conditions: GBM patient neurospheres viability, ATP luminescence, 48 h; Potency: tumour line A unless noted; activity, negative = cell killing: at 46 µM (top of the series), tumour line A unless noted; also: potency is read from the fitted curve at half-maximal effect; nearly all actives have a fitted effect of over 40% in size
# Summary of the method: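 Primary testing used CD133+ neurospheres from four GBM patients, seven concentrations, 48 h exposure and ATP-based viability; confirmation added three slower-growing patient lines.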
# [10] = test system: Zika virus NS2B-NS3 protease (linked construct); assay: Primary screen NINDS Rhodamine qHTS for Zika virus inhibitors (AID 1347160); conditions: activity change, negative = inhibition: at 57.1 µM (top of the series) unless noted; also: nearly all actives have a fitted effect of over 55% in size
# Summary of the method: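 Each compound, titrated, sat 15 min with 25 nM linked protease before 1.5 microM Rhodamine110 substrate went in. Fluorescence gain over the next 15 min, in pH 8.0 Tris with Tween 20, gave Hill-fitted curves.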
# [11] = Primary qHTS for inhibitors of nuclear receptor binding SET domain protein 2 (NSD2) in an isogenic RCH-ACV NSD2 p.E1099K mutant (9B) (AID 1645876); also: nearly all actives have a fitted effect of over 70% in size; also: potency is read from the fitted curve at half-maximal effect
# JEG-3 = assay: Primary qHTS to identify gynecologic anti-cancer compounds using libraries of approved drugs and bioactive compounds (AID 1345084); conditions: Gynecologic cancer cell panel viability, ATPlite luminescence, 48 h; series mostly up to 57.5 µM; also: nearly all actives have a fitted effect of over 55% in size; also: potency is read from the fitted curve at half-maximal effect; as to activity change, negative = cytotoxicity: % is scaled to controls: 0 for no effect and ±100 for the full control effect
# Summary of the method: as §1
# [12] = test system: Zika virus NS2B-NS3 protease (unlinked complex); assay: Primary screen GU Rhodamine qHTS for Zika virus inhibitors: Unlinked NS2B-NS3 protease assay (AID 1347159); also: potency is read from the fitted curve at half-maximal effect; nearly all actives have a fitted effect of over 60% in size
# Summary of the method: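 In dose–response format, inhibition of unlinked protease (25 nM) was measured with 1.5 microM bis-peptide Rhodamine110 substrate. Aprotinin served as the intraplate control.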
# [13] = Primary redox qHTS assay for identification of artifact compounds. (AID 1845223); conditions: Amplex Red/HRP redox cycling with DTT, fluorescence; redox activity (% of DA3003): at 53.8 µM (top of the series);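 also: 0% = DMSO and 100% = reference compound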
# Summary of the method: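 Redox-cycling detection via DTT (250 uM final) oxidation coupled to Amplex Red (25 uM)/HRP (250 mU/mL) in HBSS. 15 min preincubation plus 30 min after DTT, room temperature. Ex/Em 525/598 nm; 4-parameter Hill fit against DMSO and 10 uM DA3003.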
# Hek293T = assay: Primary qHTS to identify gynecologic anti-cancer compounds using libraries of approved drugs and bioactive compounds (AID 1345084); conditions: Gynecologic cancer cell panel viability, ATPlite luminescence, 48 h, control line for the selectivity index; activity change, negative = cytotoxicity: at 57.5 µM (top of the series) unless noted; also: nearly all actives have a fitted effect of over 55% in size; also: potency is read from the fitted curve at half-maximal effect
# Summary of the method: as §1
# [14] = Primary qHTS for inhibitors of nuclear receptor binding SET domain protein 2 (NSD2) in an RCH-ACV wild type WT cells (2C) (AID 1645877); conditions: activity change, negative = cell killing: at 44.9 µM (top of the series) unless noted; also: nearly all actives have a fitted effect of over 70% in size; also: potency is read from the fitted curve at half-maximal effect
# [15] = test system: Nanoluciferase (engineered Oplophorus gracilirostris luciferase); assay: Primary Nanoluciferase (NLuc) qHTS assay for identification of artifact compounds. (AID 1845222)
# Summary of the method: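 Luminescence read-out of secreted NLuc in S16 cell conditioned medium (1:55); compounds tested with 15 min RT preincubation, then Nano-Glo substrate 1:100, 5 min. % inhibition vs no-enzyme and DMSO controls, 4-parameter Hill fit.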
# [16] = Tertiary RLuc qRT-PCR qHTS assay for Zika virus inhibitors (AID 1347169)
# Summary of the method: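 Vero, 1,000 cells/well, o/n 37 C; cpd pinned in DMSO; ZIKV-RLuc Cambodian, MOI 1-2, 48-72 h 37 C; live-cell RLuc substrate, lum read at 1-1.5 h.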
# [17] = qHTS of pediatric cancer cell lines to identify multiple opportunities for drug repurposing: Primary screen for U-2 OS cells (AID 1347096);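 also: plate controls were DMSO wells for no effect and bortezomib positive control wells for full effect; nearly all actives have a fitted effect of over 50% in size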
# Summary of the method: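 Cells (500-1,000/well) in growth media were settled 5 h at 37 degrees C, then given compounds for 48 h. Viability was read as CellTiter-Glo luminescence. Primary runs used MIPE at 11 points (0.78 nM-46 µM) and NPC at 8 points (0.59 nM-46 µM); follow-ups used 11 points.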
# Tags tell the direction and shape of the fitted curve.
compound,measurement,setting,value
COc1cc2occc2c(O[C@@H]2O[C@H](CO)[C@@H](O)[C@H](O)[C@H]2O)c1CCC(=O)O,Potency,[1],inactive
same,Potency,[2],active: 11.1 µM
same,Potency,[3],active: 5.19 µM
same,Potency,CRL-7250,"inconclusive: 7.96 µM [inhibitor, single point]"
same,Potency,PA-1,inactive
same,Potency,SKOV3,inactive
COc1cc(O)c2c(c1Cl)CC(C)OC2=O (centres undefined),outcome,CRL-7250,inactive
same,Potency,PA-1,inactive
same,Potency,SKOV3,"inconclusive: 1.58 µM [rising, partial curve]"
Oc1ccccc1C=NCc1ccccc1,Potency,[4],"inconclusive: 56.2 µM [inhibitor, partial curve, poor fit]"
same,Potency,[5],inactive
same,Potency,[6],inactive
same,Potency,[7],"inconclusive: 10 µM [inhibitor, partial curve, poor fit]"
same,Potency,[8],"inconclusive: 38.9 µM [inhibitor, single point]"
same,Potency,CP194,inactive
same,Potency,CP291,inactive
same,Potency,GB4,inactive
same,Potency,JCK,inactive
same,Potency,CRL-7250,"inconclusive: 29.9 µM [inhibitor, single point]"
same,Potency,OV90,"inconclusive: 4.47 µM [cytotoxic, full curve, poor fit]"
same,Potency,PA-1,"inconclusive: 0.355 µM [cytotoxic, single point]"
same,Potency,SKOV3,inactive
same,Potency,[9],"inconclusive: 17.8 µM [inhibitor, partial curve]"
CC(Cc1cc2c(c(C(N)=O)c1)N(CCCO)CC2)NCCOc1ccccc1OCC(F)(F)F (centres undefined),Potency,[10],inactive
same,Potency,[11],"inconclusive: 29 µM [inhibitor, partial curve, poor fit]"
same,Potency,[3],"inconclusive: 6.7 µM [inhibitor, partial curve, poor fit]"
same,Potency,CRL-7250,"inconclusive: 29.1 µM [inhibitor, single point]"
same,Potency,JEG-3,"inconclusive: 39.8 µM [rising, single point]"
CC1(C)CCCC2(C)C1CC=C1C(=O)OC(O)C12O (centres undefined),Potency,[12],"inconclusive: 39.8 µM [inhibitor, full curve]"
same,Potency,[11],inactive
same,Potency,[3],"inconclusive: 23.8 µM [inhibitor, single point]"
same,Potency,[13],inactive
same,max response,CRL-7250,inactive: -7.54%
same,Potency,Hek293T,inactive
C[C@H]1[C@@H](O)[C@H](O)C2[C@]3(C)C([C@@H](O)[C@H]4OC(=O)[C@@H]1[C@@]24C)[C@](C)(O)C=C[C@H]3O[C@@H]1O[C@H](CO)[C@@H](O)[C@H](O)[C@H]1O (some centres undefined),Potency,[3],"inconclusive: 13 µM [inhibitor, partial curve]"
same,max response,CRL-7250,inactive: 0.954%
same,Potency,PA-1,inactive
same,Potency,SKOV3,"inconclusive: 0.447 µM [rising, full curve]"
c1ccc(-c2ncc(CN3CCN(c4ncccn4)CC3)[nH]2)cc1,Potency,[14],inactive
same,Potency,[2],inactive
same,Potency,[15],inactive
same,max response,CRL-7250,inactive: -0.931%
same,Potency,JEG-3,inactive
COC(=O)c1cc(OC)cc(OC)c1C(=O)c1c(OC)cc2c(c1O)C1CCCC(C)(O2)O1 (centres undefined),Potency,CRL-7250,"inconclusive: 14.2 µM [inhibitor, single point]"
same,Potency,OV90,inactive
C=C1CC/C=C(/CO)C(=O)C[C@@H]2[C@@H]1C[C@@]2(C)COC(C)=O,Potency,[12],"inconclusive: 22.4 µM [inhibitor, full curve]"
same,Potency,[14],"inconclusive: 29 µM [inhibitor, single point]"
same,outcome,CRL-7250,inactive
same,Potency,JEG-3,inactive
same,Potency,SKOV3,inactive
O=C(OC1C=C(CO)C2C(OC3OC(CO)C(O)C(O)C3O)OC=CC12)c1ccc(O)cc1 (centres undefined),Potency,[1],inactive
same,Potency,[3],"inconclusive: 5.19 µM [inhibitor, partial curve, poor fit]"
same,Potency,CRL-7250,"inconclusive: 15.9 µM [inhibitor, single point]"
same,Potency,PA-1,inactive
same,Potency,SKOV3,inactive
CCCCc1ccc(C(=O)Nc2cc(-c3ccc(Cl)cc3)nn2-c2ccc(Cl)cc2)cc1,Potency,[1],inactive
same,Potency,[16],"inconclusive: 13.1 µM [inhibitor, partial curve, poor fit]"
same,Potency,[8],inactive
same,max response,CRL-7250,inactive: -0.768%
same,Potency,PA-1,"inconclusive: 3.16 µM [cytotoxic, partial curve, poor fit]"
same,Potency,SKOV3,"inconclusive: 39.8 µM [rising, single point]"
C=C[C@H]1[C@H](O[C@@H]2O[C@H](CO)[C@@H](O)[C@H](O)[C@H]2O)OC=C(C(=O)OC)[C@H]1C[C@@H]1c2cc(O)c(O)cc2CCN1C(C)=O,Potency,[10],inactive
same,Potency,[3],"inconclusive: 1.78 µM [inhibitor, full curve]"
same,max response,CRL-7250,inactive: -23.5%
same,Potency,JEG-3,inactive
CN1N=C(C(N)=O)CCC1=O,Potency,[17],inactive
same,outcome,CRL-7250,inactive
same,Potency,PA-1,"inconclusive: 22.4 µM [rising, partial curve, poor fit]"
same,Potency,SKOV3,"inconclusive: 11.2 µM [rising, partial curve]"
